Measured values from the supplement of paper PMC4466236.
Whole data set: some 33,000 sequences, median “E-score (dimensionless, -0.5 to 0.5)” near -0.058, cut for the highest 2% near 0.35. This is one part of the list.

The sequences below were run on MvaT (assay: PBM 8-mer E-score (mean of HK and ME arrays) (E-score (dimensionless, -0.5 to 0.5)); higher = stronger relative binding preference; most listed sequences are background and not binding sites).
Procedure, shortened: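 Full-length P. aeruginosa MvaT, with glutathione S-transferase fused to its N-terminus (cloned into pTH6838 by isothermal assembly), was tested by protein binding microarray using a previously described protocol. Two universal double-stranded 60-mer arrays (ME and HK) were used, each with a constant 25-mer primer region and a variable 35-mer region covering all 8-mers. The rank-based 8-mer E-score (-0.5 to 0.5) is the mean of the two arrays, parsed with a custom Python script.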

Sequence	PBM 8-mer E-score
ACCACCCA	-0.0734
AGACTTAC	0.128
TCCCGAAA	-0.073
AGTGGTAT	0.118
AATCGCCA	-0.0398
TCAAGGAA	0.000339
AAGAGTGC	-0.0214
ACAAGTAT	0.301
ACACAACA	0.211
AATGTTTC	0.258
AATGGATG	0.0767
ACAGGTAA	0.08
GTTCTGGA	0.0616
GGAATACC	0.104
AGAAAACC	-0.13
GCTATTAA	0.272
CCCGGTCA	-0.209
GCACATGA	-0.0727
GTTGTCAA	0.0974
ACCATTAG	-0.0308
GTAATACA	0.295
ATATTGAC	0.311
AAGCCCCT	-0.304
TCACTTAA	0.166
ACTACGGC	-0.0988

Sequence	PBM 8-mer E-score
CGACGTTA	0.0202
ACTTGACA	0.149
CTCTTTAC	0.0884
GACGCGGC	-0.328
CAAGCGGC	-0.233
CGAAGGAG	-0.202
ACGAGTCG	-0.0915
CGTAACAA	0.142
ATAAACTA	0.356
ACATGGCC	-0.214
ACAACCTA	0.0166
TTGACCAA	0.0947
ACAACCGT	-0.0347
GAGAGACC	-0.287
ACTCGAAA	0.0967
ACGTCCGC	-0.185
TACATCTA	0.223
CGCTTTAA	0.0497
AATGTCAC	0.0333
GTCTCTGA	-0.0291
ACATAGCT	0.0352
ATTCTGTC	0.0429
CACGATCC	-0.167
ATTCAGAA	0.0979
AGAGCTAC	-0.0532

Sequence	PBM 8-mer E-score
CGGCACTC	-0.168
CCGAAGGA	-0.248
CTAATTAG	0.35
AGGGGCCC	-0.319
GCACAAGC	-0.143
AAATGATA	0.267
ATGTAAAT	0.327
TGATAGCA	-0.0138
CTGTCCGC	-0.266
AGCGGATG	-0.112
ATACACGG	0.065
GACTTTCA	0.0538
GACAACCC	-0.101
CTTATGTC	0.0334
CGGTTCCC	-0.306
GGGACAAA	-0.0263
CTCCAGAC	-0.174
TAGGTTAA	0.0544
CAACCGCC	-0.215
TCCGTTAA	-0.0501
CCGTATAC	0.00619
CCGAGACA	-0.0391
ATCCGGTG	-0.108
CATGGCCC	-0.251
AAGCGCTT	-0.0764

Sequence	PBM 8-mer E-score
CTATAGCC	-0.168
CGGTGCAC	-0.121
ACTATTCA	0.184
CCAGGTAC	-0.0781
AACCTGCC	-0.176
CGGAGAAA	-0.077
CAGCAGAC	-0.159
CAGCGCCG	-0.354
CCCCTTCG	-0.28
GCACATAA	0.154
CCAGGTAA	-0.0204
AACTAATA	0.323
CCGTGTCC	-0.297
ACGTATCA	0.0348
AGATCAAG	-0.0606
AAGGTTCG	-0.0294
GTTGGCAA	0.021
TAGAGTAA	0.18
CAAAGTCC	-0.13
TATGTGAA	0.276
GCCTAACC	-0.244
CGCTAGGA	-0.172
ACCTGCGT	-0.176
CGCATACG	-0.0218
CCTTAAGG	0.069

Sequence	PBM 8-mer E-score
ATCAGTCC	-0.268
GGGTTGAA	0.026
GTGGCCAA	-0.191
GGCCTTTA	-0.108
GAAGTAGC	-0.0327
AACCACAT	0.00645
GATGGGGA	-0.11
ACAAAAGT	0.217
TAAAGGCA	0.122
AAGGGACG	-0.209
GGGAATCA	-0.0887
CAAAGCCG	-0.0804
ACAAAATC	0.166
ACTTGATG	-0.0563
CGAGTAGA	-0.159
ACGGGAGC	-0.235
CACAGCAG	-0.158
ATAAGGAC	0.0678
CAACGGTA	-0.182
ACACGTGC	-0.0817
ATTATCAC	0.24
TATCTTAA	0.31
AATACGTA	0.319
CCAGATGA	-0.0506
TAGGTCCA	-0.154

Sequence	PBM 8-mer E-score
CTGCGTAC	-0.173
CCCAAGCC	-0.279
AATCGATT	0.162
CAGCCACA	-0.253
CTGGCACC	-0.229
CATGAACG	-0.0794
AGTCTCAC	0.0524
GGGGGCGA	-0.254
GCGAAACC	-0.227
ACGGGTAA	0.0679
CAGCTTGG	-0.212
GCATGGCA	-0.197
CACCGCAC	-0.0892
CCGAGAGC	-0.196
CTAACCTC	-0.159
AGGCCCAT	-0.0843
GAGGCCCC	-0.199
AAAGGAAC	-0.147
GCGCCCAA	-0.198
TCTATAGA	0.0846
AAAGGTTA	0.164
ACCGCCGC	-0.24
ATTAGCAA	0.203
AAAAGCAG	0.0803
GGTGATAC	-0.0312

Sequence	PBM 8-mer E-score
ACCGCGTC	-0.142
TATCGTAA	0.215
GGACGAAC	-0.182
CCGAATAC	0.0428
AAATAATG	0.387
CGTTGTAA	0.174
GTAAGATA	0.175
ACCCTGGC	-0.236
ATATGGTA	0.316
AACGTAGT	0.000134
CACATTGA	0.14
GCTAAGCA	-0.164
ACTACATC	0.0407
CTCGTCAC	-0.132
GATCACAA	-0.15
ATATACAA	0.406
TATCAAAA	0.175
CCAAGCAC	-0.264
GCCCGAGA	-0.255
CAACTTTA	0.297
GAAACGGC	-0.049
ACGATCGT	-0.191
AGAACCAC	-0.13
GTGTGTAA	0.161
AAGGCCAT	-0.165

Sequence	PBM 8-mer E-score
CTGCGCAC	-0.202
CCTCTTGA	-0.245
GGCCTGTA	-0.095
GTGGGGAA	-0.0945
GCGAAACA	0.0733
ACCATTGC	-0.0183
CGAGTTAC	-0.0919
GGTGTTAA	0.149
GCCGGTCA	-0.0733
ATCATGCA	0.0287
CTCAATTC	-0.0532
CTCACGAG	-0.189
AGAGGTTC	-0.178
AAATACCG	0.271
CACGTCCC	-0.212
AGGTTGAA	-0.0276
AAGAGCTG	-0.0947
TGTAGGAA	-0.103
ATGTCCTA	-0.0549
ACATCCCT	-0.0651
CCGAAATA	0.28
CCTGTTTC	-0.0821
ATTGAAAG	0.195
AGCAGTCA	0.00122
TTATAGAA	0.2

Sequence	PBM 8-mer E-score
CGCCACAG	-0.231
AGGCCCAA	-0.263
TATCCATA	0.185
CCTGCAGC	-0.193
CCGTTACA	0.0795
GCCGCATA	0.0601
AAACCGTG	-0.0885
ACTTTTGG	0.076
TATCGGGA	0.0691
AGTTAGTG	0.15
AAATAGAT	0.235
TGCCAACA	-0.0277
ATTGACCC	-0.143
ACGGCGCT	-0.175
ACTTAAGG	0.113
ATAGGTGG	-0.0932
ACTCAACG	-0.157
ACCCCAAA	-0.0921
CCTAAATA	0.226
AGCACCTC	-0.245
GGCTCATA	-0.0439
CATTCCGA	-0.0359
CTGATAGC	-0.222
GGGGCCCA	-0.279
CAAATCAG	0.0407

Sequence	PBM 8-mer E-score
TACGACGA	-0.0432
CTCCCAAA	-0.00676
AAGATCTG	-0.0201
CGCATCAA	0.0181
AAAATGGT	-0.0747
AAACAAAC	0.14
AACAAGGG	-0.0513
ATATTTCA	0.329
CGGTCTTC	-0.198
GTGATCGA	-0.0688
GGAGTATA	0.21
GACCTCCA	-0.289
TCCGGCGA	-0.136
CCGGACAA	-0.15
AACGCGGC	-0.231
GTCCCTTA	-0.116
ATTGGCCA	-0.109
TGGTGCAA	0.0798
ATGAATGA	0.111
GGAAAGCC	-0.217
CCCATGAG	-0.0838
GAAGATGA	-0.128
ACCGTACA	-0.106
GAGAGCTA	-0.172
AACGACGA	0.0654

Sequence	PBM 8-mer E-score
CTGACTAC	-0.0474
ACTAAACG	0.124
GTACGCCA	-0.164
CTCTATAA	0.081
ATAAGCAC	0.159
CATATAGG	0.151
TACTGACA	0.103
ACTGTGAT	0.052
ACCGGCGA	-0.107
ACATCATC	0.0491
CTGGGTGC	-0.149
GGCCAATA	0.161
AAACTATC	0.301
CTCGTAGA	-0.166
AGCTTACA	0.0039
CGATTCCG	-0.0824
AAACCAGC	0.0746
GAAGTGGA	0.032
TAGCGGCA	0.0311
GGGAGGAA	-0.237
AGCCCTGA	-0.234
AGGAATCA	-0.0493
GTTGTGTA	0.176
AATTCTAT	0.185
CCTTTGCG	-0.261

Sequence	PBM 8-mer E-score
ACTGAATC	0.0223
GAGTCGTA	-0.0812
GGCCCGTA	-0.161
AGGAACCA	0.0478
CCAATCAC	-0.0994
TCTAACAA	0.105
TCCCGGCA	-0.125
CTTGTATA	0.246
CCACCCCC	-0.323
CAAGAAAG	0.00724
AGTACTGC	0.0406
ATGTGCTG	-0.0632
GTCTGTGA	-0.134
GAAAATCA	0.0231
CAGGACAA	-0.00859
CCCACGTA	-0.107
AGTCATGC	-0.244
CCGTACGA	-0.141
CCGGCCGC	-0.143
ACACTCAG	-0.115
AGGAAATA	0.151
CTTCACCA	-0.081
AAAAAAGG	0.0491
CTCTAGGA	-0.118
CTGAAATC	-0.0759

Sequence	PBM 8-mer E-score
ACAGTGTC	-0.0753
TGTCAAAA	0.119
AATTGTAT	0.271
ATTTTGGA	0.212
CACTTCCC	-0.113
TTAGGAAA	0.114
CTAGAAGA	-0.0187
AAGCTCCA	-0.0879
ACCGGCCC	-0.197
CGCCAGAA	-0.0432
CATTCCAA	0.00827
ATACACAG	0.0306
GGGTTATA	0.23
CATAAAGC	-0.128
AGGAATAC	0.17
TGGGGCAA	-0.0406
CGGGTATC	-0.0923
GCGGTCGA	-0.16
ATATTTAG	0.342
ATAGCATC	0.00869
AATTTCGC	0.0294
ATACGGCG	-0.11
GATCCGGA	-0.0845
AATTGCTG	0.0923
ATACCAAC	0.221

Sequence	PBM 8-mer E-score
ACACGGCT	-0.214
ATGCGGCC	-0.188
GTCAGACA	-0.167
CCCTTGCA	-0.14
GGAGACGA	-0.133
CATACGCG	-0.0229
GCCATGAA	-0.0834
CCAATGAC	-0.153
CGGCCACC	-0.225
TAACCCCA	-0.108
GCATCGAC	-0.194
CTTCCGAA	0.0328
TCCTAAAA	0.0593
CACCAGAA	-0.0779
AGGACACA	-0.021
GATGACGA	-0.075
GATCGTTA	-0.0614
CCAGGCGA	-0.206
ATCAGCTG	0.0407
